Article PMC7819943, “Rice protein-binding microarrays: a tool to detect cis-acting elements near promoter regions in rice”
The other results are listed elsewhere or left out.

Each sequence was assayed against T1, OsWOX13 (Oryza sativa, UniProt Q5QMM3 1-267) (assay: protein-binding microarray (RPBM); PBS, 2% BSA, 51.3 ng/ul salmon testes DNA, 50 uM zinc acetate, 200 nM TF, 25 C, 1 h; high values mean tight binding). Conditions: protein: recombinant; tags: N-terminal polyhistidine and DsRed monomer fusion (pET32a); label: CyDye5-dUTP incorporated in the synthesized complementary strand; 3' TTTTT single-stranded linker to array surface; dsDNA, one strand shown.
T1 sequence: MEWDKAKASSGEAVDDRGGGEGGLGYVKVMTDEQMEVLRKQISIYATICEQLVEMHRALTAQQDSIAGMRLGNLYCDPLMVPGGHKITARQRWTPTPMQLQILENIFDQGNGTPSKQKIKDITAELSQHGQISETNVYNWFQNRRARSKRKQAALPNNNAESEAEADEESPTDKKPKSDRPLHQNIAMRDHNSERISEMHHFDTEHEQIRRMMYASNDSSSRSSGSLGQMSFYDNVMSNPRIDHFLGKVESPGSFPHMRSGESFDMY
In short: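 Binding signal is defined as the fluorescence intensity of each feature in arbitrary units, read on an Axon 4000B scanner. Transcription factors with N-terminal polyhistidine and DsRed fusions came from E. coli BL21-CodonPlus and were purified on Ni–NTA. They were incubated at 200 nM for 1 h at 25 °C on a custom Agilent array that had been made double-stranded with Cy5-dUTP, with 50 µM zinc acetate present, and the array was washed.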

Sequence	binding signal
AGGTAATTGAGTATGCAGTAAGCAGTTGATGTGTATCTGTCGGAGTCACCTAGTGCAG	31800 fluorescence intensity (a.u.)
ATTTCCAATCTCCATTAATAAGCCAATCCCCAGCCTGTCCCGGAGTCACCTAGTGCAG	6110 fluorescence intensity (a.u.)
ATGTTTTGCCTTTTATAATTATACGTGTGTAAATCATATGCGGAGTCACCTAGTGCAG	3900 fluorescence intensity (a.u.)
ACTTTGCTTAACAAATTACTAATTTACTACCAGTAGTCTACGGAGTCACCTAGTGCAG	12600 fluorescence intensity (a.u.)
TATTTTAAAATTGATAAAATCATCACGGATATCTTGTTGTCGGAGTCACCTAGTGCAG	15900 fluorescence intensity (a.u.)
AGTTGATTTTGACTGAAGTTTGCCTCGGACGTGCTGGTGGCGGAGTCACCTAGTGCAG	51500 fluorescence intensity (a.u.)
CTATTAATTTCCTCGTGTTAGTTAATGAATCATCACGCGCCGGAGTCACCTAGTGCAG	11600 fluorescence intensity (a.u.)
TATATATATATATATATATATATATATATATTACAAAATACGGAGTCACCTAGTGCAG	10700 fluorescence intensity (a.u.)
GAAGTTATTAACAAATTAGATACATCTCTTGTTTAGATTACGGAGTCACCTAGTGCAG	4700 fluorescence intensity (a.u.)
CTGATAAATTATATAGCTCCTGTGAAACTTTCTATGCAGACGGAGTCACCTAGTGCAG	15500 fluorescence intensity (a.u.)
TTTGAAGATTTAATTGCAACGAATTTAATGGTGCAATCGGCGGAGTCACCTAGTGCAG	10600 fluorescence intensity (a.u.)
GTGTATTGATCTTGGATTGAGGGAGTTTTATCTGAAGACTCGGAGTCACCTAGTGCAG	4730 fluorescence intensity (a.u.)
AAAATCATAAAATTGGCTAAATTAGTATAGGAAGGGTCCCCGGAGTCACCTAGTGCAG	12100 fluorescence intensity (a.u.)
TAGTAATTGGTACTGTTGAACTTATTAGCGTGCTCCCCAACGGAGTCACCTAGTGCAG	25900 fluorescence intensity (a.u.)
TATATTTTGATTTTAAATTTGACAAAAGAATCGGGAAATCCGGAGTCACCTAGTGCAG	5000 fluorescence intensity (a.u.)
TACATGACTGAATCATCGTTAATCACCGTTGAAAAGTCACCGGAGTCACCTAGTGCAG	14700 fluorescence intensity (a.u.)
CAGGATTAGCTAGGGAATTAACGTGTCTATTACCATACTTCGGAGTCACCTAGTGCAG	12500 fluorescence intensity (a.u.)
CCTCTCTTTAATTATACCCTGCTAACCCGACCAAGCAAAGCGGAGTCACCTAGTGCAG	3320 fluorescence intensity (a.u.)
AATACTTAATTAATCACGCGCTAATGGAATACAACCCTATCGGAGTCACCTAGTGCAG	14100 fluorescence intensity (a.u.)
TACTGGATTAAATTATTTTGGACTTTCCCAAAATAGAACACGGAGTCACCTAGTGCAG	3390 fluorescence intensity (a.u.)
GACGAATTAATTCCAAACAGCGCGAGGGCCTTCCATAACGCGGAGTCACCTAGTGCAG	3900 fluorescence intensity (a.u.)

Sequence	binding signal
GCTAATAGATTGCTATTGTATCTGCTCTTATGCATGATCGCGGAGTCACCTAGTGCAG	61200 fluorescence intensity (a.u.)
GCTAATTATAGTTTAATTAGGCTTAATAAATTTACAGTTTCGGAGTCACCTAGTGCAG	42300 fluorescence intensity (a.u.)
TATGTAATTTTAGAATTTATATTATAAATACACTAAATTTCGGAGTCACCTAGTGCAG	5170 fluorescence intensity (a.u.)
TCTCATCCTCCTTGATAGATTTCTTGAGCTTGGGACACGTCGGAGTCACCTAGTGCAG	4310 fluorescence intensity (a.u.)
AATAAATTAGGAAAAGAATATGTTTTAGGCTACATTCGACCGGAGTCACCTAGTGCAG	12200 fluorescence intensity (a.u.)
CCCTAAATACATTCATAATTTTACTTCCACCGATCAAAATCGGAGTCACCTAGTGCAG	3190 fluorescence intensity (a.u.)
TTCCATCACATCAAAATTTTCCTACACACAAACTTTCAATCGGAGTCACCTAGTGCAG	3300 fluorescence intensity (a.u.)
CTTGTTTAATTAGAAAATATATATGGCAAGGAAATCAACGCGGAGTCACCTAGTGCAG	13200 fluorescence intensity (a.u.)
TAATTAACAAATTTAGATAAGAGTTATTTATTGTTGTAGGCGGAGTCACCTAGTGCAG	9740 fluorescence intensity (a.u.)
ATATGTTTAATTAAAGTAGCATCTGAAAATTATGTTGAAGCGGAGTCACCTAGTGCAG	5960 fluorescence intensity (a.u.)
AGTAACTTCAATGTTAATTGGAAATAACTTTTGCATTGTTCGGAGTCACCTAGTGCAG	18200 fluorescence intensity (a.u.)
TTACTTTCAATAATTTGGATTATAATAATCCCAAACTTTGCGGAGTCACCTAGTGCAG	5090 fluorescence intensity (a.u.)
TTGATGTGATGGAAAAGTTGAAAGTTTGGAACTAAACTCGCGGAGTCACCTAGTGCAG	11300 fluorescence intensity (a.u.)
TTATATTTTAATTAAAACTATTATAATACACAATACGTCACGGAGTCACCTAGTGCAG	10200 fluorescence intensity (a.u.)
ATAATTAAAACTCAATTAAACATACCCTAATAACTTTCTTCGGAGTCACCTAGTGCAG	6130 fluorescence intensity (a.u.)
ATTTTAATTTGCACTGTTGGGATTTATGACTTTTGTTATACGGAGTCACCTAGTGCAG	18300 fluorescence intensity (a.u.)
TGCACCTTACCTTAATTAGATTTATCACTAACATGTGAGTCGGAGTCACCTAGTGCAG	7800 fluorescence intensity (a.u.)
GAACGAATATATTCGTAATTGATATTTTGCAATGGCTAAACGGAGTCACCTAGTGCAG	10700 fluorescence intensity (a.u.)
TTTAAAATTTAACCCTAAATTACATTTACTCTAGACTCTACGGAGTCACCTAGTGCAG	8730 fluorescence intensity (a.u.)
CAGTTGATTAGGGTCTATACGCATCGAAAATATTACTTTCCGGAGTCACCTAGTGCAG	27900 fluorescence intensity (a.u.)
CTAGTTGACAGTTGACTCGTTAGTAGCTGACAGCGGGCCCCGGAGTCACCTAGTGCAG	3450 fluorescence intensity (a.u.)

Sequence	binding signal
AAAATGTCAATTAAAATGAAACTGGAGGGAGTACTAGTACCGGAGTCACCTAGTGCAG	19500 fluorescence intensity (a.u.)
ACTGTCGCTAATTGGTACAGTAGTTACCAATTCAGAATGGCGGAGTCACCTAGTGCAG	27000 fluorescence intensity (a.u.)
ATTGATAAATTGGTTATTTTGTTGGCTATTTAATTGATTTCGGAGTCACCTAGTGCAG	21400 fluorescence intensity (a.u.)
AATGTTAATTAAACTGCTGATAACTAGCGAAGGAATTGAACGGAGTCACCTAGTGCAG	31600 fluorescence intensity (a.u.)
ACAAACAAATTGAAATAAAATATAACTCCACAGCCACTGTCGGAGTCACCTAGTGCAG	19600 fluorescence intensity (a.u.)
CATAATTAGCATACTATAACATCGATAGACACGTTCTGACCGGAGTCACCTAGTGCAG	33400 fluorescence intensity (a.u.)
GTGGGATTAGAATTGAGAAATGAATGAAAGGTTATGATTACGGAGTCACCTAGTGCAG	12500 fluorescence intensity (a.u.)
CGGATTAATTATGTTTAATAAATTCATCTCGCAATTTCCTCGGAGTCACCTAGTGCAG	27800 fluorescence intensity (a.u.)
CTCGACAGTTACCTCTTAATTTAGTGGTGTACGTCATATACGGAGTCACCTAGTGCAG	5630 fluorescence intensity (a.u.)
TTATCTTGATAATCATTATTAAGTCCCTCATTGTAAGTTCCGGAGTCACCTAGTGCAG	4240 fluorescence intensity (a.u.)
ATTAAACTCGGCCTTAATTTTCGTGAAAATCACGTGTTTTCGGAGTCACCTAGTGCAG	5920 fluorescence intensity (a.u.)
ATCCATCATATCCAATCAAGAAAATGGAACACACAAGGAACGGAGTCACCTAGTGCAG	21100 fluorescence intensity (a.u.)
GTGATGGATATAACAAATCTATTTATAACAACATTGTGATCGGAGTCACCTAGTGCAG	10700 fluorescence intensity (a.u.)
AACAATCAATCAATGCTGTAGTATTTACCAATGTCGAATTCGGAGTCACCTAGTGCAG	21800 fluorescence intensity (a.u.)
AAAGTTGATTTTCTTTTGGGACGAAGGGTATGTAGTCAACCGGAGTCACCTAGTGCAG	10100 fluorescence intensity (a.u.)
CTCACAAACAGGTCAATCATACCAACAAGGAATGCCCTCACGGAGTCACCTAGTGCAG	12400 fluorescence intensity (a.u.)
TGTGTGAATTGACTATTAGATTTAGCTATATATAAATTAACGGAGTCACCTAGTGCAG	4190 fluorescence intensity (a.u.)
ACATAACCGCGCAAATTTAGTTTATTCGTTACTCCCTCCGCGGAGTCACCTAGTGCAG	7170 fluorescence intensity (a.u.)
TTAAATCACATGACTTTCAGTTATTGACATATGGACCCTCCGGAGTCACCTAGTGCAG	9300 fluorescence intensity (a.u.)
ATTTTGAAATTTTAATTTTAAAATTACATTTTGGGACAAACGGAGTCACCTAGTGCAG	8130 fluorescence intensity (a.u.)
TGTTAAATTGTATCAAGCATGTGCTGGAGCTGTAAAATTGCGGAGTCACCTAGTGCAG	5150 fluorescence intensity (a.u.)

Sequence	binding signal
TTTTAATATAACAAATTTGGATAACTAAGATGTGCCACATCGGAGTCACCTAGTGCAG	3750 fluorescence intensity (a.u.)
GCTCTCTTATGATTTGTTATAACTTAAGTTTTACTGGAACCGGAGTCACCTAGTGCAG	9670 fluorescence intensity (a.u.)
CACACTGTGATTGAGATTATACATGTAGACATATTAAACACGGAGTCACCTAGTGCAG	16700 fluorescence intensity (a.u.)
CAATTTGTAATAAATTAGTTAATTACAGTAGCATTTGGAACGGAGTCACCTAGTGCAG	19200 fluorescence intensity (a.u.)
ACCTGATGGACAAGCTTTCCATCTCTTTAGCATTAATCCTCGGAGTCACCTAGTGCAG	17400 fluorescence intensity (a.u.)
TCAGCTAACTTTCTATAATTGGCTCAGCCCTAATCTACAACGGAGTCACCTAGTGCAG	10200 fluorescence intensity (a.u.)
CAAATTCATTCTAATTTAATCAAAATTTTAAATAATTTCGCGGAGTCACCTAGTGCAG	13300 fluorescence intensity (a.u.)
TGATAATTTAATTTGAAGACACCATCCATTGAATACATAGCGGAGTCACCTAGTGCAG	37100 fluorescence intensity (a.u.)
CACCATTGAGTTATAATCTAATCACGTATAATACTTTTGACGGAGTCACCTAGTGCAG	4320 fluorescence intensity (a.u.)
GCCCTTAGATCATTGTGATTGGCTGGATTACATGGACCCGCGGAGTCACCTAGTGCAG	19600 fluorescence intensity (a.u.)
TTTACAAAGCTTAATTAAGTTTCATCAAATCGTATAAAGTCGGAGTCACCTAGTGCAG	6950 fluorescence intensity (a.u.)
TTAGACTAATACTTAGTTAATCACGCTTGGATTTGTCTACCGGAGTCACCTAGTGCAG	3390 fluorescence intensity (a.u.)
ATTTATGTAATTAGTTTTGTAAGTAGTCTATATTTAATACCGGAGTCACCTAGTGCAG	3780 fluorescence intensity (a.u.)
TGCTTAAATTACTTTGGATAATAAAGTAAGTCACAAATAACGGAGTCACCTAGTGCAG	3730 fluorescence intensity (a.u.)
CCCATTTTAATTAGTCTCTTCCTAGTGAAAAGTAGATTGTCGGAGTCACCTAGTGCAG	8570 fluorescence intensity (a.u.)
AAGCAATTAAGCAAATCGAGACGTCTCGAGGAGGCCAAGCCGGAGTCACCTAGTGCAG	4770 fluorescence intensity (a.u.)
TTTTGACAACAACAGATTGCTAGGGTTCTGGTTCTCTCCCCGGAGTCACCTAGTGCAG	15300 fluorescence intensity (a.u.)
CTAATGATAATTGAGGATTTGAGGTGGCCAAATGAAGTACCGGAGTCACCTAGTGCAG	28500 fluorescence intensity (a.u.)
GAAAATCAGTTTGTGATTTGACTAGCTAGTTGCTTCTGCCCGGAGTCACCTAGTGCAG	11600 fluorescence intensity (a.u.)
TGTGTTAAACTATATAATTTTCTCTAAAACATAATGGTACCGGAGTCACCTAGTGCAG	3720 fluorescence intensity (a.u.)
CACTATTAATTGTGCTTAGAGCAAGTTTAATAGTGTAGCCCGGAGTCACCTAGTGCAG	9860 fluorescence intensity (a.u.)
